# From patent US20090291088A1, “THERAPEUTIC COMBINATIONS OF ANTI-IGF-1R ANTIBODIES AND OTHER COMPOUNDS” (Biogen Idec MA Inc., priority 2008, published 2009)
# Key:
# [1] = test system: association of IRS-1 with the p85 regulatory subunit of PI3K; assay: Co-immunoprecipitation of IRS-1 with p85 in NSCLC cell lines; type: cell-based, human; conditions: 10 nM, 24 hours, 5% FBS
# Description: Cell lysates were immunoprecipitated with an anti-p85 antibody and subjected to western blot analysis with anti-IRS-1 (top blot) and anti-p85 (bottom blot) antibodies (FIG. 23).
# For this assay, human lung tumor cell lines A549, Calu-6, and NCI-1299 cells were purchased from ATCC and maintained in RPMI medium 1640 containing 10% fetal bovine serum (FBS). […] Cell lysates were prepared in 1% Triton X-100 lysis buffer from Cell Signaling Technology, Inc. (Danvers, Mass. USA)). For immunoprecipitation, anti-p85 antibody (Cat #06-649, Upstate Cell Signaling Solutions (now part of Millipore, Concord, Mass. (USA) was added to the lysate (4 ug of antibody per 1-2 mg of lysate) and incubated at 4° C. overnight. The immunocomplex was then captured by mixing with protein-G agarose beads for 2 hours at 4° C. The immunoprecipitates were washed with ice-cold lysis buffer and boiled in 2×LDS (Lithium Dodecyl Sulfate) sample buffer before separation by NUPAGE® Novex 4-12% Bis-Tris Gel electrophoresis (Invitrogen Corp., Carlsbad, Calif. (USA)), and transfer to nitrocellulose membranes. IRS-1 (Cat # 06-248, Upstate) and p85 (Cat # 06-649, Upstate) antibodies were purchased from Millipore and immunoblotting was performed according to the manufacturer's protocols.
# [2] = test system: lung, pancreas, and colon tumor cell lines; assay: In vitro growth of lung, pancreas and colon tumor cell lines in medium with 10% FCS or FBS; type: cell-based, human; conditions: 10% Serum in Media
# hIGF-1R-Fc = target: T1, hIGF-1R-Fc (Homo sapiens, UniProt P08069); assay: Antibody cross-blocking ELISA with biotinylated M13-C06 or M14-G11; type: binding
# T1 construct: (3) human IGF-1R(1-903)-Fc (hIGF-1R-Fc, Biogen Idec); host or cells: CHO
# Description: The ability of various antibodies to block M13-C06 or M14-G11 was determined using biotinylated version of both antibodies and hIGF-1R-Fc. Briefly, 50 μL of 2 μg/mL hIGF-1R-Fc in 1×PBS were coated per well of a 96-well clear MaxiSorp plate (Nunc) for 2 hours at room temperature (RT, no shaking). Plates were washed with 1×PBS and blocked overnight at 2-8° C. using a PBS/1% BSA solution. Plates were washed and incubated with a 100 μL mixture of biotinylated M13-C06 or biotinylated M14-G11 (80 ng/mL) and inhibitor antibody for 1 hour at RT. Inhibitor antibodies were serially diluted (5-fold dilutions) from 40 μg/mL to 3 ng/mL. M13-C06 and M14-G11 were biotinylated using EZ-Link Sulfo-NHS-LC-Biotin according to protocol provided by the manufacturer (Pierce Cat. No. 21335). A control was also performed by serial dilution of a non-IGF-1R specific IgG4 isotype control antibody with biotinylated M13-C06 or biotinylated M14-G11. Plates were washed and shaken for 1 hour at RT with 100 μL/well streptavidin-HRP (1:4000 dilution into blocking buffer, Southern Biotech Cat. No. 7100-05). Plates were washed and 100 μL/well SureBlue Reserve TMB Microwell Peroxidase Substrate (KPL, Cat. No. 53-00-01) was added to the wells. Detection of the presence of biotinylated M13-C06 or M14-G11 was performed by reading the absorbance at 650 nm every 5 minutes using a Wallac 1420-041 Multilabel Counter plate reader.
molecule,measurement,setting,value
"M13-C06.G4.P.agly: full-length hinge-modified aglycosylated human gamma 4, kappa antibody with the binding domain of Fab M13-C06 (antibody) heavy: EVQLLESGGGLVQPGGSLRLSCAASGFTFSIYRMQWVRQAPGKGLEWVSGISPSGGTTWYADSVKGRFTISRDNSKNTLYLQMNSLRAEDTAVYYCARWSGGSGYAFDIWGQGTMVTVSSASTKGPSVFPLAPCSRSTSESTAALGCLVKDYFPEPVTVSWNSGALTSGVHTFPAVLQSSGLYSLSSVVTVPSSSLGTKTYTCNVDHKPSNTKVDKRV[human IgG4 Fc with S228P T299A (EU numbers) not written out] light: DIQMTQSPLSLSASVGDRVTITCQASRDIRNYLNWYQQKPGKAPKLLIYDASSLQTGVPSRFGGSGSGTDFSFTIGSLQPEDIATYYCQQFDSLPHTFGQGTKLEIKRTVAAPSVFIFPPSDEQLKSGTASVVCLLNNFYPREAKVQWKVDNALQSGNSQESVTEQDSKDSTYSLSSTLTLSKADYEKHKVYACEVTHQGLSSPVTKSFNRGEC",inhibition of association of IRS-1 with p85,[1]; A549,inhibited
same,inhibition of association of IRS-1 with p85,[1]; Calu-6,not in Calu-6
same,inhibition of association of IRS-1 with p85,[1]; H1299,inhibited
same,percent growth inhibition,"[2]; A549 (Lung), 2 nM antibody",12%
same,percent growth inhibition,"[2]; A549 (Lung), 20 nM antibody",22%
same,percent growth inhibition,"[2]; A549 (Lung), 200 nM antibody",41%
same,percent growth inhibition,"[2]; BXPC3 (Pancreas), 0.2 nM antibody",6%
same,percent growth inhibition,"[2]; BXPC3 (Pancreas), 2 nM antibody",3%
same,percent growth inhibition,"[2]; BXPC3 (Pancreas), 20 nM antibody",9%
same,percent growth inhibition,"[2]; BXPC3 (Pancreas), 200 nM antibody",26%
same,percent growth inhibition,"[2]; Calu-6 (Lung), 0.2 nM antibody",0%
same,percent growth inhibition,"[2]; Calu-6 (Lung), 2 nM antibody",0%
same,percent growth inhibition,"[2]; Calu-6 (Lung), 20 nM antibody",0%
same,percent growth inhibition,"[2]; Calu-6 (Lung), 200 nM antibody",9%
same,percent growth inhibition,"[2]; Capan-1 (Pancreas), 0.2 nM antibody",0%
same,percent growth inhibition,"[2]; Capan-1 (Pancreas), 2 nM antibody",0%
same,percent growth inhibition,"[2]; Capan-1 (Pancreas), 20 nM antibody",0%
same,percent growth inhibition,"[2]; Capan-1 (Pancreas), 200 nM antibody",0%
same,percent growth inhibition,"[2]; Capan-2 (Pancreas), 0.2 nM antibody",41%
same,percent growth inhibition,"[2]; Capan-2 (Pancreas), 2 nM antibody",45%
same,percent growth inhibition,"[2]; Capan-2 (Pancreas), 20 nM antibody",47%
same,percent growth inhibition,"[2]; Capan-2 (Pancreas), 200 nM antibody",38%
same,percent growth inhibition,"[2]; Colo 205 (Colon), 0.2 nM antibody",0%
same,percent growth inhibition,"[2]; Colo 205 (Colon), 2 nM antibody",0%
same,percent growth inhibition,"[2]; Colo 205 (Colon), 20 nM antibody",11%
same,percent growth inhibition,"[2]; Colo 205 (Colon), 200 nM antibody",28%
same,percent growth inhibition,"[2]; HT-29 (Colon), 0.2 nM antibody",21%
same,percent growth inhibition,"[2]; HT-29 (Colon), 2 nM antibody",21%
same,percent growth inhibition,"[2]; HT-29 (Colon), 20 nM antibody",23%
same,percent growth inhibition,"[2]; HT-29 (Colon), 200 nM antibody",37%
same,percent growth inhibition,"[2]; NCI-H23 (Lung), 0.2 nM antibody",5%
same,percent growth inhibition,"[2]; NCI-H23 (Lung), 2 nM antibody",12%
same,percent growth inhibition,"[2]; NCI-H23 (Lung), 20 nM antibody",21%
same,percent growth inhibition,"[2]; NCI-H23 (Lung), 200 nM antibody",47%
same,percent growth inhibition,"[2]; Panc-1 (Pancreas), 0.2 nM antibody",6%
same,percent growth inhibition,"[2]; Panc-1 (Pancreas), 2 nM antibody",11%
same,percent growth inhibition,"[2]; Panc-1 (Pancreas), 20 nM antibody",12%
same,percent growth inhibition,"[2]; Panc-1 (Pancreas), 200 nM antibody",30%
same,percent growth inhibition,"[2]; SK-MES-1 (Lung), 0.2 nM antibody",12%
same,percent growth inhibition,"[2]; SK-MES-1 (Lung), 2 nM antibody",10%
same,percent growth inhibition,"[2]; SK-MES-1 (Lung), 20 nM antibody",6%
same,percent growth inhibition,"[2]; SK-MES-1 (Lung), 200 nM antibody",7%
same,percent growth inhibition,"[2]; SW620 (Colon), 0.2 nM antibody",0%
same,percent growth inhibition,"[2]; SW620 (Colon), 2 nM antibody",4%
same,percent growth inhibition,"[2]; SW620 (Colon), 20 nM antibody",6%
same,percent growth inhibition,"[2]; SW620 (Colon), 200 nM antibody",20%
same,percent growth inhibition,"[2]; WiDr (Colon), 0.2 nM antibody",35%
same,percent growth inhibition,"[2]; WiDr (Colon), 2 nM antibody",45%
same,percent growth inhibition,"[2]; WiDr (Colon), 20 nM antibody",51%
same,percent growth inhibition,"[2]; WiDr (Colon), 200 nM antibody",57%
"M14-G11: anti-IGF1-R antibody, competitive blocker of IGF-1 and IGF-2 (antibody, V domains shown, Antibody variable heavy chain sequence; Antibody variable light chain sequence) VH: EVQLLESGGGLVQPGGSLRLSCAASGFTFSNYPMYWVRQAPGKGLEWVSRISSSGGRTVYADSVKGRFTISRDNSKNTLYLQMNSLRAEDTAVYYCARDRWSRSAAEYGLGGYWGQGTLVTVSS VL: DIQMTQSPDSLAVSLGERATINCKSSQSVLYSSNNKNYLAWYQQKPGQPPKLLIYLASTRESGVPDRFSGSGSGTDFTLTISSLQAEDVAVYYCQQYYSTWTFGQGTKVEIK",M14-G11 cross-blocking,hIGF-1R-Fc,+++++ (+++++ = antibody binding competition relative to itself (90-100%))
